According to publication PMC4336329 (PLoS ONE, 2015):
Among all 310,000 compounds or so, about 14,000 (4.5%) showed an effect of 50% or more. Effects have a minus sign here. The list shows a part of the results.

target: human ether-à-go-go-related gene (hERG) potassium channel (human, UniProt Q12809); test: primary screen, population patch clamp on CHO cells stably expressing hERG
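Note: peak tail current of the secondary pulse compared with the same well before compound.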

Chain of human ether-à-go-go-related gene (hERG) potassium channel (Q12809 whole entry, looked up): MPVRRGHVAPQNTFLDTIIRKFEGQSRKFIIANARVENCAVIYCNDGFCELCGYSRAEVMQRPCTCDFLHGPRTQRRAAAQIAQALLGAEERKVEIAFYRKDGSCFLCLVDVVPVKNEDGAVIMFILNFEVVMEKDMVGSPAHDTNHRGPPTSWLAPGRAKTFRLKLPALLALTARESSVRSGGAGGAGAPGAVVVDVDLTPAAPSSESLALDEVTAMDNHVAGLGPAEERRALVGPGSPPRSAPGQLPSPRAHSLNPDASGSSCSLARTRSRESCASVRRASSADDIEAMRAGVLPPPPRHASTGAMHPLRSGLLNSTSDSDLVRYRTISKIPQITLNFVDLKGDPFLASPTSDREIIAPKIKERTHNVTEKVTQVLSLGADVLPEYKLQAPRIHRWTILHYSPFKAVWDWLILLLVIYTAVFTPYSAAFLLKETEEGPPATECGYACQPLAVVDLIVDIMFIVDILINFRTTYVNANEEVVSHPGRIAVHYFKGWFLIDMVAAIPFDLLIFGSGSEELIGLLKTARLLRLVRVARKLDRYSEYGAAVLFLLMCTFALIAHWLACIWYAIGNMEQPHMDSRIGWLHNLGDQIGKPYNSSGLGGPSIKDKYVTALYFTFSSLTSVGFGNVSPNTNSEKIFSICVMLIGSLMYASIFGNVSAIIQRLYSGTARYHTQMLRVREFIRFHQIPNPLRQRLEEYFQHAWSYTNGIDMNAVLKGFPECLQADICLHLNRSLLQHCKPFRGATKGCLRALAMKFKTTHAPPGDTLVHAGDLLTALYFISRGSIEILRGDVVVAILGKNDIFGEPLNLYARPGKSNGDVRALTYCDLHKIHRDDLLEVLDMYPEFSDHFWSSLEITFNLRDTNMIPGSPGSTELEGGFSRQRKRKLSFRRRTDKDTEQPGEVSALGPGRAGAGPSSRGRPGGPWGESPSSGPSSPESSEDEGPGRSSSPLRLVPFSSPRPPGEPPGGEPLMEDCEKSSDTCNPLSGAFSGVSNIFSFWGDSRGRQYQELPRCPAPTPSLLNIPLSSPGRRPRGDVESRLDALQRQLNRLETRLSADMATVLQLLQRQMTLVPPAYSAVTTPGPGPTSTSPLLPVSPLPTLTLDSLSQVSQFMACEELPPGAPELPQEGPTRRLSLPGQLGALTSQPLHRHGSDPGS

Compound	hERG current change (%, negative = inhibition) at 10uM
Cc1ccc(C2CC(C(F)(F)F)n3ncc(C(=O)NCc4ccco4)c3N2)cc1 (centres unmarked)	-7.43%
CC(Oc1ccccc1Cl)c1nnc(N)s1 (centres unmarked)	-2.34%
CC1(C)OC1COc1c2ccoc2cc2oc(=O)ccc12 (centres unmarked)	-11.4%
O=C1N(Cc2ccccc2F)c2ccccc2C12OCCCO2	10.9%
CCc1cc(Cl)c(OC)c(C(=O)NC[C@@H]2CCCN2CC)c1O.Cl	-59.2%
CC1(C)Cc2c(c(-c3ccco3)[nH]c(=O)c2C#N)CS1	-5.06%
CCN(CC)S(=O)(=O)c1ccc(N2CCN(c3ccccc3O)CC2)nc1	-52.8%
O=S(=O)(c1ccccc1)N1CCN(c2nc3ccccc3s2)CC1	3.57%
Nc1nc(SCC(=O)c2c(N)n(Cc3ccccc3)c(=O)[nH]c2=O)n[nH]1	-2.1%
CCC(C)(C)NC(=O)C(c1ccc(OC)cc1)N(C(=O)CCC(=O)Nc1cc(C)on1)c1cccc(F)c1 (centres unmarked)	3.48%
O=C(COc1ccccc1)NC(=S)N1CCc2ccccc21	17.8%
COc1ccc(N2C(=O)c3ccccc3NC23CCCCC3)cc1	6.26%
Cc1ccc(C(=O)N/C(=C/c2cccc([N+](=O)[O-])c2)C(=O)NC(C)C)cc1	-51.8%
CCOc1ccc(N(CC)C(=O)c2cn(CC)c(=O)c3cc(OC)c(OC)cc23)cc1	9.71%
C#CCSc1nnc(CSc2nc3ccccc3s2)n1-c1ccccc1	-3.87%
CC1CCCCN1C(=O)c1cc(S(=O)(=O)N2CCCCC2)c[nH]1 (centres unmarked)	21%
O=C(c1cc2ccccc2o1)N1CCN(c2cccc(C(F)(F)F)c2)CC1	3.21%
COc1ccc(-c2csc(NC(C)c3nc4cc(Cl)c(Cl)cc4n3CCCO)n2)cc1 (centres unmarked)	-4.39%
C=CCn1c(SCC(N)=O)nnc1-c1ccccc1O	0.103%

Compound	hERG current change (%, negative = inhibition) at 10uM
CC1CC/C(=C\c2ccc3c(c2)OCO3)C(=O)/C1=C/c1ccc2c(c1)OCO2 (centres unmarked)	11.2%
COc1ccc(-c2c(C)nn(-c3ccccc3)c2NC(C)=O)cc1OC	16.9%
CCc1cc(C(=O)NC(C)C2CCCO2)cs1 (centres unmarked)	37.3%
O=C(CN1C(=O)c2ccccc2S1(=O)=O)c1ccc2c(c1)OCCO2	10.8%
COC(=O)c1c(C(=O)OC)c(-c2cccc(Cl)c2)n2c1CS(=O)(=O)C2	-16.6%
CN(CCC#N)C(=O)COC(=O)c1ccc(Cl)c(S(=O)(=O)N(C)c2ccccc2)c1	-58.2%
O=C(Cc1nc(-c2ccc(Br)s2)cs1)NCCN1CCOCC1	-7.2%
O=C(Cn1ccc(NC(=O)OCc2ccccc2)nc1=O)NCCN1CCOCC1	6.09%
O=C(CCN=C1NS(=O)(=O)c2ccccc21)OCC(=O)c1ccc(F)cc1	-3.17%
COc1cccc2cc(-c3nc(-c4cccs4)cs3)c(=O)oc12	5.36%
CC1(C)Oc2ccc3ccc(=O)oc3c2/C(=C/NNC(N)=O)C1=O	1.98%
Cc1cc(C)n2nc(SCCC(=O)NCc3ccccc3)nc2n1	8.53%
CCCC(=O)Nc1c(-c2ccc(C)cc2)c(=O)c2ccccc2n1C	12.7%
CCCC(=O)c1c[nH]c(C(=O)N2CCOCC2)c1	7.61%
COc1cccc(NC(=S)N/N=C2\CC3CCC2(C)C3(C)C)c1 (centres unmarked)	20.5%
COCCNC(=O)CN1C(=O)CSc2ccc(S(=O)(=O)N3CCOCC3)cc21	16.1%
COc1ccc(C(=O)c2ccc(OC)c(OC)c2)cc1	-6.26%
CCCCc1nnc(NC(=O)c2ccccc2OCc2c(C)noc2C)s1	-10.6%
N#Cc1nc(Cc2cccc3ccccc23)oc1NCCN1CCOCC1	-20.3%

Compound	hERG current change (%, negative = inhibition) at 10uM
Cc1ccc(S(=O)(=O)NCc2cccnc2)cc1C(=O)NC1CCCCC1	-3.53%
CC(C)NC(=O)Cn1cc(C(=O)C(=O)N2CCOCC2)c2ccccc21	-0.333%
CNC(=O)COc1ccc(S(=O)(=O)Nc2ccc(C)cc2)cc1	8.87%
Cc1cc(C)n(C(=O)c2cccc([N+](=O)[O-])c2C)n1	11%
Cc1nn(Cc2ccc(Cl)cc2)c(C)c1NC(=O)CSc1nc2c(c(C(F)(F)F)n1)CCc1ccccc1-2	5.96%
CCN(CC)S(=O)(=O)c1ccc(OC)c(NC(=O)c2ccc(N3CCCC3=O)cc2)c1	-15.1%
O=C(CSc1nc2ccccc2s1)N1CCCCC1	-2.91%
Cc1ccccc1C(=O)/C(C#N)=N/Nc1c(C)n(C)n(-c2ccccc2)c1=O	-6.1%
COc1ccc(C2CC(c3ccccc3)=NN2C(=O)COC(=O)c2cc(S(=O)(=O)N3CCOCC3)ccc2Cl)cc1 (centres unmarked)	-5.4%
CCCCn1c2ccc(C)cc2c2nnc(SCCN3CCCCC3)nc21	-74.3%
Cc1ccc(CS(=O)Cc2ccc(C(=O)NCc3ccccc3Br)o2)cc1 (centres unmarked)	-11.2%
COc1ccc(OC(C)C(=O)N(C)Cc2nc(-c3ccccc3)no2)cc1 (centres unmarked)	15.8%
O=C(Nc1nc(-c2ccc(F)c(F)c2)cs1)c1ccc(OCC2CCCO2)cc1 (centres unmarked)	5.97%
Cc1cc(=O)oc2c(C)c(OCC(=O)Nc3cccnc3)ccc12	-25.3%
O=C(CCCN1C(=O)c2ccccc2C1=O)Nc1nnc(C2CC2)s1	22.5%
CCOC(=O)N1CCN(c2c(N3CCN(c4ccccc4F)CC3)c(=O)c2=O)CC1	-48.3%
CC1CN(c2ccc(Cl)cc2[N+](=O)[O-])CCN1S(C)(=O)=O (centres unmarked)	-41.2%
Cc1ccccc1N=C1NC(=O)C(CO)(CO)S1	13.3%
